Target: T1, HLA A2.1 (Homo sapiens, UniProt P04439, D140Y/D185E/D98H/E176V/E277Q/G131W/G231S/I119V/I121R/I166T/I218V/L300P/L318F/N151K/N90K/P208A/P217A/Q86G/Q94H/R138H/R169H/T345S)
T1 construct: expressed in transfected cells
Assay type: cell-based

Sequence: FRIGCRHSR [HIV Vpr peptide]
- thermostabilization of HLA A2.1 surface expression: not A2.1

From US20030138946A1
